The source of these data is PubChem BioAssay AID1745853 (National Center for Advancing Translational Sciences (NCATS), 2022).

What all share (assay): Primary Screen for Target Class Profiling of Small Molecule Inhibitors of Methyltransferases
Experiment [1] deals with Glycine N-methyltransferase (Homo sapiens) (UniProt Q14749). Conditions: purified enzyme, MTase-Glo SAH luminescence; measured here: GNMT inhibition; at 40 µM; stronger effect = lower value. A digest of the protocol:
(§1)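 Each enzyme was assayed with SAM and its substrate. SAH formation detected by MTase-Glo luminescence; single-point 40 uM screen[…].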

The target in experiment [2] is Guanidinoacetate N-methyltransferase (Homo sapiens) (UniProt Q14353). Conditions: purified enzyme, MTase-Glo SAH luminescence; measured here: GAMT inhibition; at 40 µM; stronger effect = lower value. A digest of the protocol:
as §1

Experiment [3] concerns the target Histamine N-methyltransferase (Homo sapiens) (UniProt P50135). The conditions noted are these: purified enzyme, MTase-Glo SAH luminescence; measured here: HNMT inhibition; at 40 µM; stronger effect = lower value. The method in brief: as §1
For experiment [4], the target named is Nicotinamide N-methyltransferase (Homo sapiens) (UniProt P40261). The conditions noted are these: purified enzyme, MTase-Glo SAH luminescence; measured here: NNMT inhibition; at 40 µM; stronger effect = lower value. A digest of the protocol:
as §1

For experiment [5], the target named is Phenylethanolamine N-methyltransferase (Homo sapiens) (UniProt P11086). Conditions: purified enzyme, MTase-Glo SAH luminescence; measured here: PNMT inhibition; at 40 µM; stronger effect = lower value. The method in brief: as §1

The list shows a part of the results. The main result of the screen is listed elsewhere. These columns were measured beside it and carry no call.
% is set by controls: 0 for no effect and ±100 for the full control effect.

For the compound `Cc1cccc(C)c1-n1c(=O)c2cnc(Nc3ccc(N4CCN(C)CC4)cc3)nc2n2c3ccccc3nc12`, the activity change, negative = inhibition in experiment [1] was -14.6%; in experiment [2] it was 11.8%; in experiment [3] it was -31.8%; in experiment [4], -22.8%; in experiment [5], 2.97%.

Regarding `CCCC1(CO)CCCN(Cc2nnc(-c3cccc(F)c3)o2)C1` (configuration not stated), the activity change, negative = inhibition was -6.47% in experiment [1]; -8.86% in experiment [2]; -5.54% in experiment [3]; -15.4% in experiment [4]; -12.7% in experiment [5].

As for `CCN1C(=O)c2cc3ccccc3n2CC1(C)C(=O)NCC(=O)NCc1cccs1` (configuration not stated), the activity change, negative = inhibition was -3.62% in experiment [1]; 3.27% in experiment [2]; -3.41% in experiment [3]; -7.17% in experiment [4]; -4.16% in experiment [5].

In the case of `O=C1CCC2(CCCN(C(=O)c3ccc(=O)[nH]c3)C2)CN1CCc1cnc[nH]1` (configuration not stated), the activity change, negative = inhibition is -5.45% in experiment [1]; -6.07% in experiment [2]; -2.98% in experiment [3]; -8.16% in experiment [4]; -6.92% in experiment [5].

As for `CN[C@H]1CC[C@@H](c2ccc(Cl)c(Cl)c2)c2ccccc21`, the activity change, negative = inhibition is -7.64% in experiment [1]; 3.98% in experiment [2]; -33.3% in experiment [3]; -23.2% in experiment [4]; 5.25% in experiment [5].

As to `CC1CCC(NC(=O)C2(C)Cn3c(cc4sccc43)C(=O)N2c2ccc(C(C)C)cc2)CC1` (configuration not stated), the activity change, negative = inhibition is 2.09% in experiment [1]; 0% in experiment [2]; 3.79% in experiment [3]; 3.7% in experiment [4]; -7.97% in experiment [5].

As for `Cc1ccc(CN2C(=O)c3cc4occc4n3CC2(C)C(=O)NC2CCCCC2C)cc1` (configuration not stated), the activity change, negative = inhibition in experiment [1] was 0.599%; in experiment [2], 4.03%; in experiment [3], 4.66%; in experiment [4] it was -1.59%; in experiment [5] it was 2.53%.

For the compound `CC(C)(O)c1ccc2c(c1)C(=O)CC1[C@](C)(CO)CCC[C@]21C` (some centres not stated), the activity change, negative = inhibition in experiment [1] is -16.2%; in experiment [2] it was -14%; in experiment [3], 4.55%; in experiment [4], -26.1%; in experiment [5], -1.08%.

As to `CNC(=O)N1CCC(C2CCN(C(=O)Cn3cccn3)C2)CC1` (configuration not stated), the activity change, negative = inhibition in experiment [1] is -1.61%; in experiment [2], -2.62%; in experiment [3] it was -0.359%; in experiment [4], 3.56%; in experiment [5], 3.15%.

Regarding `CCOCCCNC(=O)N1CCC2(CC1)CC(N(Cc1ccc(F)cc1)C1CC1)CCO2` (configuration not stated), the activity change, negative = inhibition was -3.64% in experiment [1]; -0.32% in experiment [2]; -0.017% in experiment [3]; -3.41% in experiment [4]; -3.38% in experiment [5].

As to `Cc1noc(C)c1S(=O)(=O)N1CCC[C@H]1C(=O)N1CCCCCCNC(=O)CC1`, the activity change, negative = inhibition in experiment [1] is -1.05%; in experiment [2], 0.556%; in experiment [3], 2.7%; in experiment [4] it was 0.232%; in experiment [5] it was 1.14%.

As to `Cc1ccc(-c2n[nH]n3c2nc(=O)c2ccc(C(=O)NCCC(C)C)cc23)cc1`, the activity change, negative = inhibition in experiment [1] was -12.6%; in experiment [2], -4.09%; in experiment [3] it was -2.34%; in experiment [4] it was -7.57%; in experiment [5], -4.78%.

Turning to `CCOC(=O)c1cc2n(n1)CC(C)(C(=O)NCc1ccc(F)cc1)N(Cc1ccc(OC)cc1)C2=O` (configuration not stated), the activity change, negative = inhibition is 1.36% in experiment [1]; 0% in experiment [2]; 3.25% in experiment [3]; 0.231% in experiment [4]; -1.97% in experiment [5].

As to `Cc1ccc(CN2C(=O)c3cc4ccccc4n3CC2(C)C(=O)NCc2ccccc2)cc1` (configuration not stated), the activity change, negative = inhibition in experiment [1] is -1.42%; in experiment [2], 5.59%; in experiment [3] it was 1.74%; in experiment [4] it was -0.962%; in experiment [5] it was -3.91%.

Consider `CC1CC(=O)NN=C1c1ccc(NCC(C)(C)NCC(O)COc2cc(Cl)ccc2C#N)cc1` (configuration not stated), for which the activity change, negative = inhibition in experiment [1] is -7.69%; in experiment [2], 5.69%; in experiment [3], -13.3%; in experiment [4] it was -17.3%; in experiment [5], -8.73%.

Regarding `CCn1ccc(C(=O)N2CC(c3nc(CCOCC4CC4)no3)C2)n1`, the activity change, negative = inhibition in experiment [1] is 2.92%; in experiment [2], -1.45%; in experiment [3], 0.652%; in experiment [4] it was 3.54%; in experiment [5], -4.96%.

As for `O=C(N1CCCCC1)N1CCN(c2cc(Cl)ncn2)C(=O)C1`, the activity change, negative = inhibition in experiment [1] is -4.84%; in experiment [2] it was -2.93%; in experiment [3], -2.27%; in experiment [4], -8.62%; in experiment [5] it was -3.64%.

Regarding `O=C(NCc1ccc(F)c(F)c1)C1CN(C2CCCC2)C(=O)N1` (configuration not stated), the activity change, negative = inhibition was -0.365% in experiment [1]; -0.44% in experiment [2]; 2.44% in experiment [3]; 0.127% in experiment [4]; 2.54% in experiment [5].

As to `CC1(C)CCC(C)(C)c2cc([C@@H](O)C(=O)Nc3ccc(C(=O)O)cc3F)ccc21`, the activity change, negative = inhibition in experiment [1] is -6.52%; in experiment [2] it was -3.79%; in experiment [3], 6.75%; in experiment [4], -29.7%; in experiment [5] it was -1.65%.

In the case of `COC(O)(CC(C)C)C1Oc2cc(C)[nH]c(=O)c2O1` (configuration not stated), the activity change, negative = inhibition in experiment [1] is 3.92%; in experiment [2] it was 7.04%; in experiment [3], 4.37%; in experiment [4], -7.84%; in experiment [5] it was 6.87%.

As for `CCN1CCN(C(=O)c2cc3n(n2)CC(C)(C(=O)NCc2ccc(F)cc2)N(C)C3=O)CC1` (configuration not stated), the activity change, negative = inhibition was 1.66% in experiment [1]; 4.34% in experiment [2]; -2.95% in experiment [3]; 4.72% in experiment [4]; 1.88% in experiment [5].

In the case of `CN(C(=O)CCS(=O)(=O)c1ccccc1)C1CCc2nn(C)c(=O)n2CC1` (configuration not stated), the activity change, negative = inhibition is -2.3% in experiment [1]; 0.186% in experiment [2]; 1.58% in experiment [3]; -3.12% in experiment [4]; -1.17% in experiment [5].

For the compound `CCOC(=O)N1CCC2(CC1)N=C(CCC(C)C)NC2=O`, the activity change, negative = inhibition was 7.5% in experiment [1]; 4.35% in experiment [2]; 3.18% in experiment [3]; -2.06% in experiment [4]; 12.9% in experiment [5].

With `CC(C)Cn1c(=O)c2ccccc2n2c(CCC(=O)NC3CCC(C)CC3)nnc12` (configuration not stated), the activity change, negative = inhibition in experiment [1] was -4.23%; in experiment [2] it was 1.4%; in experiment [3] it was 6.24%; in experiment [4], 2.93%; in experiment [5], -3.02%.

Turning to `COc1ccccc1CC(=O)N1CCC(n2nccc2NC(=O)c2ccccc2C)CC1`, the activity change, negative = inhibition in experiment [1] was 0.389%; in experiment [2], -0.34%; in experiment [3], 2.71%; in experiment [4] it was -1.22%; in experiment [5] it was 2.32%.

As for `CCOC(=O)c1cc2n(n1)CC(C)(C(=O)NCCCOC)N(c1ccc(CC)cc1)C2=O` (configuration not stated), the activity change, negative = inhibition in experiment [1] was found to be 7.13%; in experiment [2], 0%; in experiment [3], 7.98%; in experiment [4], 8.25%; in experiment [5] it was 6.9%.

For the compound `CC1CCCC(NC(=O)C2(C)Cn3c(cc4occc43)C(=O)N2Cc2ccc(F)cc2)C1C` (configuration not stated), the activity change, negative = inhibition in experiment [1] was -4.86%; in experiment [2] it was 3.17%; in experiment [3], 4.37%; in experiment [4], -5.75%; in experiment [5], -1.1%.

Regarding `CCn1c(N)c(C(=O)NC)c(=O)c2ccc(C#CC(C)(O)COC)nc21` (configuration not stated), the results for the activity change, negative = inhibition in experiment [1] and in experiment [3] were -17.1% and -5.58%, respectively.

`CCC(C)/C=C(C)/C=C/C1=CC2=C(Cl)C(=O)C(C)(OC(C)=O)C(=O)C2(O)C(OC)O1` (configuration not stated): the activity change, negative = inhibition was -0.95% in experiment [1]; 5.01% in experiment [2]; 7.7% in experiment [3]; -8.57% in experiment [4]; 4.59% in experiment [5].

Consider `CC1(C(=O)NC2CCCCCC2)Cn2c(cc3ccccc32)C(=O)N1Cc1ccccc1` (configuration not stated), for which the activity change, negative = inhibition was 3.59% in experiment [1]; 0% in experiment [2]; 2.49% in experiment [3]; -1.54% in experiment [4]; -1.38% in experiment [5].

`CCOC(=O)c1cc2n(n1)CC(C)(C(=O)NCCOC)N(c1cc(C)cc(C)c1)C2=O` (configuration not stated): the activity change, negative = inhibition in experiment [1] is 5.46%; in experiment [2], 0%; in experiment [3], 8.48%; in experiment [4] it was 5.62%; in experiment [5] it was 3.08%.
